# Assay results taken from the supplement of paper PMC4166925.
# ± gives the standard deviation of the averaged measurements. In all, about 33,000 sequences were measured (“E-score (dimensionless, -0.5 to 0.5)”: median about -0.046, highest 2% from about 0.36 on). This is one part of the list.
# Test system: T1, SpTbr T-box DNA-binding domain (GST fusion)
# T1 sequence: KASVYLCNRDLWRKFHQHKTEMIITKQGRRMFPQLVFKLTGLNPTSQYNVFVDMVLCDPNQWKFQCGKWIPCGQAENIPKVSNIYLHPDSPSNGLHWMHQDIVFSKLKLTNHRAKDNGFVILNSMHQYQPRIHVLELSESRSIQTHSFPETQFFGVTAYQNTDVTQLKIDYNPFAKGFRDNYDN
# Assay: PBM E-score of 8-mer (E-score (dimensionless, -0.5 to 0.5)); Tbr is Tbrain of the sea star Patiria miniata (Pm) or the sea urchin Strongylocentrotus purpuratus (Sp); higher = stronger binding preference; most listed sequences are background and not binding sites
# Conditions: the construct has about 5 more residues each side
# Summary of the method: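 Primer extension turned Universal Agilent oligonucleotide arrays double-stranded. They were incubated with 200 nM protein in PBS (pH 7.5); the protein was a GST-fused Tbr T-box DNA-binding domain expressed in BL21 E. coli at 20 °C and purified on glutathione. Every ungapped 8-mer was scored from the scanned, quantified probe intensities, and the Universal PBM Analysis Suite gave each an enrichment E-score averaged over duplicate arrays.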
row,Sequence,PBM E-score of 8-mer
1,AATCAGCA,0.0165 ± 0.021
2,ACAACATA,0.00404 ± 0.089
3,AATTCGCG,0.279 ± 0.02
4,AGGATAAA,-0.0311 ± 0.036
5,ACCAACGC,0.138 ± 0.011
6,AGGAAACA,-0.119 ± 0.031
7,CTGATGGC,-0.0702 ± 0.006
8,ATTGTTAG,-0.0503 ± 0.055
9,GTATTCTA,-0.185 ± 0.035
10,AATTTGTA,-0.0872 ± 0.025
11,TAGCTCGA,0.0764 ± 0.09
12,CCTTCTGC,0.16 ± 0.047
13,ACCTGCGA,0.344 ± 0.025
14,GCCGGTAA,-0.0695 ± 0.052
15,CCGGCCTC,-0.183 ± 0.035
16,CATCTCGA,-0.105 ± 0.026
17,AACTAACT,0.0205 ± 0.047
18,ATAGTTCC,-0.283 ± 0.011
19,GCAGAACC,-0.0562 ± 0.028
20,CAAATTCG,0.00135 ± 0.13
21,TCAAAAGA,-0.189 ± 0.02
22,CCATCACG,0.0562 ± 0.03

row,Sequence,PBM E-score of 8-mer
1,ACACGACC,0.138 ± 0.063
2,GTAGTGCA,-0.14 ± 0.038
3,AGACTTGG,-0.199 ± 0.003
4,CTGCTCAC,0.0993 ± 0.014
5,GAACTGTA,-0.0413 ± 0.033
6,CTGTCAAC,0.35 ± 0.023
7,GGCATCAA,-0.0899 ± 0.025
8,CAAATAGG,-0.0413 ± 0.064
9,CGGGATGA,-0.191 ± 0.02
10,CAGTTTAG,0.00658 ± 0.011
11,CAAACCTC,-0.253 ± 0.03
12,CCCTCGTC,-0.04 ± 0.071
13,CGTCCTGA,-0.155 ± 0.016
14,CTCAAAAC,0.0161 ± 0.055
15,CAAAACCA,-0.0638 ± 0.0088
16,GAATCTTA,-0.197 ± 0.05
17,ATAAGTGC,0.21 ± 0.023
18,GATTCACA,0.392 ± 0.0093
19,AAAACCTG,0.102 ± 0.046
20,GTCTCAAA,-0.197 ± 0.14
21,GTGGCTGA,0.139 ± 0.017
22,GTAGGGAA,-0.166 ± 0.0089

row,Sequence,PBM E-score of 8-mer
1,GTCTTACA,-0.123 ± 0.0059
2,ACAGCTTC,0.208 ± 0.017
3,CAAACACC,0.345 ± 0.0091
4,ATTCCGGC,0.0517 ± 0.016
5,CAATCTGC,-0.036 ± 0.042
6,GATGAGTA,-0.108 ± 0.016
7,CAGCGTCC,-0.166 ± 0.011
8,CTCTAAGA,-0.285 ± 0.036
9,GACTCAAA,-0.212 ± 0.006
10,AACGCTCA,0.0418 ± 0.0019
11,CCACTTAG,-0.0238 ± 0.042
12,CCTGCCCC,0.00261 ± 0.0042
13,CTATTATC,-0.0418 ± 0.019
14,AGTCACGA,0.152 ± 0.0034
15,CGTTACTA,0.0564 ± 0.002
16,CCGGAGGC,-0.172 ± 0.0022
17,CTCTCACA,0.3477 ± 0.0025
18,GTGTGCCA,0.209 ± 0.039
19,CTGTGAGA,0.292 ± 0.0058
20,AAGCGCTC,-0.0481 ± 0.079
21,ATTCCTAC,-0.289 ± 0.015
22,AAGTCAAT,-0.156 ± 0.078

row,Sequence,PBM E-score of 8-mer
1,ATTATCCG,-0.0997 ± 0.05
2,AAGACCGA,-0.134 ± 0.007
3,AGCGCTAT,0.0755 ± 0.028
4,CGTTCTGA,-0.248 ± 0.019
5,GCAGTTCA,-0.0433 ± 0.15
6,AGAACTCG,0.113 ± 0.032
7,CAGGTTTC,-0.0682 ± 0.024
8,CCGGGTTA,-0.166 ± 0.042
9,CTCATTCC,0.00231 ± 0.058
10,ACATACCA,0.106 ± 0.037
11,GGTCGGGA,-0.0223 ± 0.028
12,AACGTTAT,0.0135 ± 0.06
13,ATTGCGGG,-0.168 ± 0.074
14,CCGGATCG,-0.114 ± 0.033
15,ACGTAACT,-0.0794 ± 0.013
16,AGTATTTG,-0.00803 ± 0.053
17,GATGACGC,0.236 ± 0.02
18,AGAGCAAC,-0.115 ± 0.045
19,CGCATGGC,-0.0354 ± 0.028
20,GAAAGACA,-0.142 ± 0.0068
